In all, about 52,000 compounds went through this assay and about 1,700 (3.3%) were called active. Rule as the data show it: active = survival mostly below about 52% (no sharp cut-off); inactive = mostly above about 56%. The list shows a part of the results.
test system: Wild type; assay: growth inhibition of S. aureus wild type versus tarO mutant, primary screen, teichoic acid synthesis inhibitors, RN4220, OD600 (AID 463173); conditions: S. aureus RN4220 wild type/DeltatarO growth, OD600, 18 h, active compounds read low, screened at 18.75 µg/mL (by protocol)

Row | Structure (SMILES) | survival
1 | CCOc1ccc(-c2cc(C(=O)N3CCN(c4cccc(C(F)(F)F)c4)CC3)c3ccccc3n2)cc1 | inactive: 74%
2 | O=C(CSc1nnc(-c2ccc(Br)cc2)n1-c1ccccc1)c1ccccc1 | inactive: 97%
3 | Cc1ccc2oc3c(c(=O)c2c1)C(c1ccc(OCC(N)=O)cc1)N(Cc1ccc2c(c1)OCO2)C3=O (stereo unspecified) | inactive: 87%
4 | CNC(=O)CSc1nnc(NC(=O)Nc2ccccc2)s1 | inactive: 128%
5 | Cc1ccc(N(CC(C)C)S(=O)(=O)c2nnc(NC(=O)c3cccs3)s2)cc1 | inactive: 42%
6 | COc1ccc(C(=O)NCC(c2ccc3c(c2)OCO3)N2CCN(c3ccc(F)cc3)CC2)cc1 (stereo unspecified) | inactive: 88%
7 | CC1(C)CC(=O)C2=C(C1)NC1=C(C(=O)CC(C)(C)C1)C2c1ccc2c(c1)OCO2 | inactive: 106%
8 | COc1cccc(/C=N/NC(=O)COc2c(C)cccc2C)c1O | inactive: 113%
9 | CCc1ccccc1NC(=O)c1cc(-c2ccc3c(c2)OCO3)on1 | inactive: 156%
10 | CC1CCCCN1C(=O)CN1CCN(C)CC1 (stereo unspecified) | inactive: 116%
11 | CCOc1ccc(/C=C/c2nc(C#N)c(N3CCN(c4ccccc4)CC3)o2)cc1 | inactive: 82%
12 | COc1ccc(CNC(=O)CN2C(=O)COc3ccc(S(=O)(=O)N4CCOCC4)cc32)cc1 | inactive: 101%
13 | CCOCN(C(=O)Cn1cnc2cc(C)c(C)cc21)c1c(C)cccc1CC | inactive: 55%
14 | COc1ccc(-c2cn3nc(N4CCC(C(=O)Nc5ccc(C)cc5)CC4)sc3n2)cc1 | inactive: 128%
15 | Cc1cccc(Oc2coc3cc(OCC(=O)NC4CCCCC4)ccc3c2=O)c1 | inactive: 80%
16 | CCOC(=O)c1oc2c(c1C)/C(=N/O)CCC2 | inactive: 117%
17 | CN(C)c1cc[n+](Cc2ccccc2)cc1 | inactive: 108%
18 | CCOc1ccc(N(CC)S(=O)(=O)N2CCCC(C(=O)NCCc3ccccc3OC)C2)cc1 (stereo unspecified) | inactive: 86%
19 | CC1CCCCN1C(=O)CSc1nnc(-c2ccccc2Cl)o1 (stereo unspecified) | inactive: 76%
20 | COc1ccccc1CNC(=O)Cn1c(=O)ccc2cc(S(=O)(=O)N3CCCC3)ccc21 | inactive: 73%
21 | O=C(Nc1ccc(C(=O)N2CCN(c3ccc(Cl)cc3)CC2)cc1)c1nsc2ccccc12 | inactive: 81%
22 | Cc1ccc(O)c(C2=Nc3ccccc3N=C(c3cccc(F)c3)C2)c1 | inactive: 139%
23 | COc1ccc(Br)cc1CNC(=O)C1COc2ccccc2C1 (stereo unspecified) | inactive: 22%

Row | Structure (SMILES) | survival
24 | Cc1ccc2oc(-c3cc(NC(=O)c4cccs4)cc(C)c3O)nc2c1 | inactive: 163%
25 | Cc1ccc(Cl)cc1N1CCN(c2ncnc3onc(-c4ccc(F)cc4)c23)CC1 | inactive: 89%
26 | Cc1ccc(Cn2c(C)c(CNC(C)c3ccccc3)c(C(=O)O)c2C)cc1 (stereo unspecified) | inactive: 128%
27 | O=C(c1ccc(CS(=O)(=O)c2c(Cl)cccc2Cl)o1)N1CCN(c2ccccc2)CC1 | inactive: 126%
28 | Cc1ccc(-n2c(SCC(N)=O)nc3c([nH]c4ccccc43)c2=O)cc1 | inactive: 134%
29 | Cc1cncn1CCc1nc2c3ccccc3nc(SCC(=O)Nc3ccccc3F)n2n1 | inactive: 68%
30 | CC(C)(C)c1ccc(-c2noc(CCC(=O)Nc3cccc(Cl)c3)n2)cc1 | inactive: 87%
31 | CCOC(=O)N1CCN(C(=O)CN(c2cc(C)ccc2OC)S(=O)(=O)c2ccc(C)cc2)CC1 | inactive: 96%
32 | Cc1ccc(S(=O)(=O)Cc2nc(-c3ccc(C(=O)NCc4ccccc4F)cc3)oc2C)cc1 | inactive: 128%
33 | CCOc1ccccc1CNC(=O)C1CCCN(S(=O)(=O)c2ccc3c(ccn3C)c2)C1 (stereo unspecified) | inactive: 79%
34 | CCN(CC)CC(=O)Nc1nc2ccc(OC)cc2s1 | inactive: 103%
35 | CCc1ccc(-n2nc(C)c3c(C(=O)Nc4cc(C)ccc4C)cc(C)nc32)cc1 | inactive: 47%
36 | COc1nc(-c2ccc(C)cc2)ccc1-c1noc(-c2ccc(C(C)(C)C)cc2)n1 | inactive: 32%
37 | COc1ccc(OC)c(S(=O)(=O)NCCc2csc3nc(-c4ccccc4)nn23)c1 | active: -3%
38 | Cc1ccc(NC(=O)c2cc(S(=O)(=O)N3CCCC3)c[nH]2)c(C)c1 | inactive: 113%
39 | Cc1cccc(N2CCN(C(=O)c3ccc4c(c3)c(C)c(C)n4C)CC2C)c1 (stereo unspecified) | inactive: 126%
40 | COc1ccccc1N1CCN(c2cc(C)nc3nc(-c4ccc(Cl)cc4)nn23)CC1 | inactive: 78%
41 | CC1CCN(S(=O)(=O)c2nnc(NC(=O)c3cccc(F)c3)s2)CC1 | inactive: 43%
42 | COC(=O)c1sc2cccc(F)c2c1S(=O)(=O)N1CCN(c2ccc(C)cc2C)CC1 | inactive: 66%
43 | CCOC(=O)c1c(NC(=O)COc2ccc(Cl)cc2C)sc(C(C)=O)c1C | inactive: 77%
44 | CCN1CCN(c2cc(C)c3cc(NC(=O)c4ccccc4F)ccc3n2)CC1 | inactive: 68%
45 | CC(=O)N1CCc2cc(Br)cc(S(=O)(=O)CCC(=O)Nc3ccc(C)cc3Cl)c21 | inactive: 65%
46 | CCOc1ccc2oc(=O)cc(CN3CCN(c4ccc(Cl)cc4)CC3)c2c1 | inactive: 111%

Row | Structure (SMILES) | survival
47 | CCc1c(C)c2ccc(O)c(CN3CCN(c4ccccc4)CC3)c2oc1=O | inactive: 84%
48 | Cc1c(C(=O)N(Cc2ccc(N(C)C)cc2)CC2CCCO2)oc2ccc(Br)cc12 (stereo unspecified) | inactive: 81%
49 | O=c1[nH]cnc2scc(-c3ccsc3)c12 | inactive: 103%
50 | CCc1cccc(C)c1NC(=O)CN(C)S(=O)(=O)c1cccc2nsnc12 | inactive: 79%
51 | Cc1ccc(N2CCN(c3nc4c(S(=O)(=O)c5ccc(C)c(C)c5)nnn4c4ccccc34)CC2)c(C)c1 | inactive: 84%
52 | COc1ccc(C)cc1NC(=O)N1CCC(CN2CCC(C)CC2)CC1 | inactive: 77%
53 | CC(C)(C)C(=O)NC(Cc1c[nH]c2ccccc12)C(=O)O (stereo unspecified) | inactive: 111%
54 | Cc1ccc(S(=O)(=O)c2cn(C)c3cc(N4CCCCC4)c(F)cc3c2=O)cc1 | inactive: 74%
55 | CNC(=O)C1CCC(Cn2c(=O)c3sccc3n(CC(=O)NCc3cccc(OC)c3)c2=O)CC1 (stereo unspecified) | inactive: 89%
56 | Cc1cccc(-c2nc3scc(CCNC(=O)c4ccc(Br)o4)n3n2)c1 | inactive: 74%
57 | CCC(CC)C(=O)Nc1ccc(-c2cn3cccnc3n2)cc1 | inactive: 89%
58 | Cc1cc(C)cc(Nc2cc(C)nc3nncn23)c1 | inactive: 81%
59 | CCOC(=O)N1CCN(c2ncc3c(n2)CC(c2ccccc2O)CC3=O)CC1 (stereo unspecified) | inactive: 76%
60 | COc1ccc(/C=C\c2onc(C)c2S(=O)(=O)N2CCC(C(=O)Nc3cccc(Cl)c3)CC2)cc1 | inactive: 77%
61 | COc1ccccc1NC(=O)CSc1nnc2c3ccccc3n(C(C)C)c2n1 | inactive: 70%
62 | COc1ccc(CCNC(=O)CCc2c(C)nc3cc(-c4ccccc4OC)nn3c2C)c(OC)c1 | inactive: 79%
63 | COc1ccc(CNC(=O)CN2C(=O)COc3ccc(S(=O)(=O)NC4CCCC4)cc32)cc1 | inactive: 95%
64 | N#CCSc1ncccc1-c1nc2ccccc2[nH]1 | inactive: 108%
65 | Cc1ccc(Nc2nnc(-c3cc4c(ccc5ccccc54)oc3=O)s2)cc1 | inactive: 136%
66 | COc1cccc(C(=O)N2CCc3c([nH]c4ccccc34)C2c2ccc(SC)cc2)c1 (stereo unspecified) | inactive: 146%
67 | CC(=O)n1cc(C2C(=O)CC(C)(C)CC2=O)c2ccccc21 | inactive: 115%
68 | C/C(N)=C\C(=O)Nc1ccccc1 | inactive: 106%
69 | COc1cccc(CNC(=O)CCCN2C(=O)CCn3nc(-c4cccn4C)cc32)c1 | inactive: 71%

Row | Structure (SMILES) | survival
70 | COc1cc(S(=O)(=O)N2CCN(c3ccccc3F)CC2)c(OC)cc1Cl | inactive: 94%
71 | CCc1oc(C(=O)O)cc1CN | inactive: 82%
72 | CCn1c(=O)c2cc(C(=O)N(CC(C)C)CC(C)C)sc2c2ccccc21 | active: -1%
73 | CCOc1ccc(CCNC(=O)c2csc3c2CCCCC3)cc1 | inactive: 81%
74 | CCOC(=O)c1cccc(NC(=O)Cn2c(=O)nc(-c3ccccc3F)c3cc(Cl)ccc32)c1 | inactive: 71%
75 | Cc1nnc(N(C)C(=O)c2ccc3c(c2)OCO3)s1 | inactive: 98%
76 | Cc1ccc(CNc2ncnc3c2nc2n3CCCC2)cc1 | inactive: 69%
77 | CCOC(=O)c1cc(-c2ccccc2)n(CCC(=O)NC2CCCCC2)c1C | inactive: 88%
78 | Cc1ccc2nc(CSc3nnc(NC(=O)c4cccc(Br)c4)s3)cc(=O)n2c1 | inactive: 71%
79 | CCOC(=O)c1ccc(NC(=O)CN2c3ccccc3S(=O)(=O)c3ccccc32)cc1 | inactive: 121%
80 | CCN(C(=O)CSc1nc2ccccc2n1CC(=O)NCc1ccc(OC)cc1)c1ccccc1 | inactive: 80%
81 | O=C(O)c1cccn2c(=O)c3ccccc3nc12 | inactive: 114%
82 | COc1ccc(NC(=O)CC2C(=O)N(c3ccc(F)cc3)C(=O)N2Cc2ccc3c(c2)OCO3)cc1 (stereo unspecified) | inactive: 81%
83 | COc1ccc(-c2c(C)nn3c(N4CCN(c5ccccc5)CC4)cc(C)nc23)cc1OC | inactive: 82%
84 | COc1ccc(/C=C(/C#N)c2nc(-c3ccc(-c4ccccc4)cc3)cs2)cc1OC | inactive: 128%
85 | CCCn1c(=N)c(C(=O)NC2CCCC2)cc2c(=O)n3cccc(C)c3nc21 | inactive: 68%
86 | Cc1noc(C)c1S(=O)(=O)Nc1ccc(C(=O)Nc2ccc(Br)cc2)cc1 | inactive: 59%
87 | CCc1cccc(C)c1NC(=O)c1cc(S(=O)(=O)N2CCOCC2)cn1C | inactive: 95%
88 | CCOC(=O)c1ccccc1NC(=O)n1ncc2cc(Cl)ccc21 | inactive: 85%
89 | COc1cc(NC(=O)CCn2cnc3ccccc3c2=O)cc(OC)c1 | inactive: 124%
90 | CCOc1cccc(C(=O)Nc2ccc3oc(-c4cccnc4)nc3c2)c1 | inactive: 75%
91 | N#CC(C#N)=CC1=C(N2CCCC2)CCCC1 | inactive: 93%

Reference: PubChem BioAssay AID463173 (ICCB-Longwood Screening Facility, Harvard Medical School, 2010)
